We go through one molecule from patent publication US9340551B2, “Inhibitors of bacterial type III secretion system” (MICROBIOTIX, INC., priority 2011, dated 2016).

For the experiment, the system named is T3SS-mediated translocation (ExoU intoxication of CHO cells). In words: Inhibition of P. aeruginosa ExoU-dependent CHO cell killing (LDH release). Conditions: FIG. 1; rescue of CHO cells from T3SS-mediated ExoU cytotoxicity. On the technique in general: Release of lactate dehydrogenase indicates damage to the cell membrane.

Regarding `CCC(Oc1ccc(Cl)cc1Cl)C(=O)NCc1ccc2c(c1)OCO2` (stereo not shown) [MBX-2081], the “increase in potency compared to MBX-1641” value is on record as 3-4 fold.
